In the BET-seq Pho4 binding data (Le et al. 2018):
The other results are listed elsewhere or left out. The energies were worked out here from pooled read counts, against the library average; single values are noisy.

biological target: T1, Pho4 (S. cerevisiae) (UniProt P07270); assay: relative binding free energy (BET-seq); higher = weaker binding; settings: reference: library average
T1 sequence: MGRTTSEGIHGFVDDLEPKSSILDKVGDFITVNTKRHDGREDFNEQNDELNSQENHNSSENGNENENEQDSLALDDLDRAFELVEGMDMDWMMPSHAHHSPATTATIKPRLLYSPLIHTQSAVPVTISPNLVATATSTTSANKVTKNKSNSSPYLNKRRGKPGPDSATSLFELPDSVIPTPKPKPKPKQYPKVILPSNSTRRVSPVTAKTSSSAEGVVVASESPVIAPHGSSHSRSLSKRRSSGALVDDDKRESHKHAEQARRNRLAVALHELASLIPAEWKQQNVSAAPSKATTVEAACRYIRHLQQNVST

Row | Sequence | relative binding free energy
1 | TGAAACACGTGTGGAG | 0.11 kcal/mol
2 | GAGGGCACGTGTAAAG | -0.06 kcal/mol
3 | AGGTGCACGTGCATGG | -0.14 kcal/mol
4 | TAGGACACGTGGGAAC | 0.24 kcal/mol
5 | CGGTCCACGTGGTTGG | -0.04 kcal/mol
6 | CAAGTCACGTGGTGGG | 0.09 kcal/mol
7 | GATATCACGTGAGGAT | 0.44 kcal/mol
8 | TTTGGCACGTGGTCTG | -0.23 kcal/mol
9 | GGCTTCACGTGTTGAT | 0.19 kcal/mol
10 | TGCGGCACGTGGAAGT | 0.11 kcal/mol
11 | TTGGCCACGTGTTGAA | 0.05 kcal/mol
12 | TGTGACACGTGCGATG | -0.17 kcal/mol
13 | TAGTACACGTGCGGTT | -0.04 kcal/mol
14 | CGTGTCACGTGCGGGT | -0.18 kcal/mol
15 | GGGGGCACGTGTCGAA | -0.03 kcal/mol
16 | GGTGGCACGTGACGGA | 0.09 kcal/mol
17 | TATTACACGTGCAGGG | 0.09 kcal/mol
18 | TGTTACACGTGTCGTG | 0.13 kcal/mol
19 | GTCTTCACGTGTCGTT | 0.25 kcal/mol
20 | CGTTACACGTGGTGTA | -0.13 kcal/mol
21 | ATATGCACGTGCATGG | -0.11 kcal/mol
22 | TTTCTCACGTGAAGGG | 0.38 kcal/mol
23 | GAATACACGTGGTTTA | 0.08 kcal/mol
24 | GACAGCACGTGGTGTT | -0.19 kcal/mol
25 | ATGGTCACGTGGTTCA | 0.06 kcal/mol

Row | Sequence | relative binding free energy
26 | ATAGGCACGTGGTCAG | -0.27 kcal/mol
27 | TCGGGCACGTGGTCCG | -0.11 kcal/mol
28 | GAGTACACGTGGTGGC | 0.1 kcal/mol
29 | GTGTGCACGTGTGCGT | 0.09 kcal/mol
30 | TTGCGCACGTGATCGG | -0.08 kcal/mol
31 | CGGGTCACGTGGGGCG | -0.04 kcal/mol
32 | GGCTGCACGTGTGGCG | 0.03 kcal/mol
33 | GACGTCACGTGTATGT | 0.08 kcal/mol
34 | GATATCACGTGTTTAA | 0.15 kcal/mol
35 | GTTATCACGTGTAAAT | 0.16 kcal/mol
36 | TCGTTCACGTGGTAGT | 0.24 kcal/mol
37 | GAGTTCACGTGTATTA | 0.23 kcal/mol
38 | ATTTCCACGTGGATTG | 0.03 kcal/mol
39 | ATTAACACGTGATGGT | 0.15 kcal/mol
40 | TAAAACACGTGGTGTT | -0.08 kcal/mol
41 | CTTTACACGTGTGTGA | 0 kcal/mol
42 | GTAGGCACGTGGACGG | -0.04 kcal/mol
43 | TAACTCACGTGTGGGG | 0.18 kcal/mol
44 | ATGTGCACGTGATTAA | 0.06 kcal/mol
45 | AAAATCACGTGTTGGG | 0.16 kcal/mol
46 | AGCGGCACGTGCTAGG | -0.23 kcal/mol
47 | CTTGTCACGTGAATGG | 0.2 kcal/mol
48 | CTTGGCACGTGCTTGT | -0.13 kcal/mol
49 | CTGTGCACGTGCGTGA | -0.03 kcal/mol
50 | AGGTGCACGTGCGCTG | -0.21 kcal/mol

Row | Sequence | relative binding free energy
51 | TCTGGCACGTGTAGGT | -0.09 kcal/mol
52 | TCGGGCACGTGTGTGG | -0.09 kcal/mol
53 | GGTTTCACGTGATATG | 0.35 kcal/mol
54 | AAGATCACGTGTTAGA | 0.18 kcal/mol
55 | ATGGTCACGTGGAAAA | 0.26 kcal/mol
56 | GTCTTCACGTGTTGTA | 0.27 kcal/mol
57 | TTGGACACGTGGGCAT | -0.05 kcal/mol
58 | CGGTGCACGTGTGTCT | 0.03 kcal/mol
59 | TTGTTCACGTGGGTAC | 0.14 kcal/mol
60 | AGAATCACGTGGGGGA | 0 kcal/mol
61 | GTCTACACGTGGGTTG | -0.09 kcal/mol
62 | ATAGCCACGTGCGGGT | -0.11 kcal/mol
63 | GCGGGCACGTGAGCGG | 0.14 kcal/mol
64 | CGTGACACGTGGTATG | -0.14 kcal/mol
65 | TTTTGCACGTGATTGT | 0.16 kcal/mol
66 | GTGGTCACGTGGCAGT | 0.05 kcal/mol
67 | TTTTGCACGTGCTATT | -0.11 kcal/mol
68 | TAGGACACGTGGAGGG | 0.01 kcal/mol
69 | CTAGTCACGTGAGGAG | 0.36 kcal/mol
70 | GGATTCACGTGGAATG | 0.33 kcal/mol
71 | TGTTTCACGTGTGTCA | 0.33 kcal/mol
72 | ACGTGCACGTGGGTTA | -0.18 kcal/mol
73 | GTAATCACGTGTGTCG | 0.25 kcal/mol
74 | GTGAGCACGTGTCGTG | -0.11 kcal/mol
75 | GGCCGCACGTGAGGTT | 0.13 kcal/mol

Row | Sequence | relative binding free energy
76 | GGTCTCACGTGGGGCA | 0.15 kcal/mol
77 | GATAGCACGTGATGAT | 0.22 kcal/mol
78 | TTAGGCACGTGTGCTA | -0.2 kcal/mol
79 | GGTATCACGTGTTCAT | 0.05 kcal/mol
80 | AAAAGCACGTGTGCGT | -0.04 kcal/mol
81 | TGCCTCACGTGGGGTG | 0.05 kcal/mol
82 | TAATGCACGTGGCGGG | -0.09 kcal/mol
83 | GTTGTCACGTGAGTGC | 0.2 kcal/mol
84 | CACGTCACGTGTGGTA | 0.12 kcal/mol
85 | ATTCTCACGTGGTTGC | 0.23 kcal/mol
86 | AATGTCACGTGTTGGA | 0.14 kcal/mol
87 | GTTGTCACGTGAGATA | 0.26 kcal/mol
88 | TGAGTCACGTGTAGAA | 0.12 kcal/mol
89 | TTATTCACGTGCGCTT | 0.05 kcal/mol
90 | AAGTCCACGTGGGTGA | -0.07 kcal/mol
91 | GAGTTCACGTGAAGGT | 0.43 kcal/mol
92 | GTTTACACGTGCGAGT | 0.12 kcal/mol
93 | GGATTCACGTGCAGGT | 0.26 kcal/mol
94 | GAATTCACGTGTGTTT | 0.28 kcal/mol
95 | TTATTCACGTGGCCGT | 0.34 kcal/mol
96 | GAGGGCACGTGTGCTG | -0.11 kcal/mol
97 | ATGGTCACGTGGCGTC | 0.12 kcal/mol
98 | TCTAGCACGTGGAGGA | -0.02 kcal/mol
99 | CGGGTCACGTGTTCTG | 0.24 kcal/mol
100 | TCGCTCACGTGTGGTT | 0.23 kcal/mol

Row | Sequence | relative binding free energy
101 | GTTTACACGTGGAAGT | 0.15 kcal/mol
102 | ATATACACGTGACGGT | 0.13 kcal/mol
103 | ATGATCACGTGGGTAC | -0.05 kcal/mol
104 | AGTAGCACGTGGTGTA | -0.27 kcal/mol
105 | ATCTTCACGTGATTTT | 0.22 kcal/mol
106 | TGGGCCACGTGCAGGG | -0.17 kcal/mol
107 | GTGATCACGTGTATTT | 0.09 kcal/mol
108 | TTATTCACGTGTGGGC | 0.17 kcal/mol
109 | ATTGACACGTGTGGTA | 0.06 kcal/mol
110 | AGGTTCACGTGACTTT | 0.34 kcal/mol
111 | ATATGCACGTGGTTCA | -0.16 kcal/mol
112 | TGTGACACGTGTGAGT | 0.01 kcal/mol
113 | ATTGGCACGTGGGCGC | -0.2 kcal/mol
114 | GTATTCACGTGATCTT | 0.2 kcal/mol
115 | CTTGTCACGTGTCATG | 0.07 kcal/mol
116 | TGTGGCACGTGATGCC | -0.09 kcal/mol
117 | TCAAGCACGTGTGGAT | 0.02 kcal/mol
118 | TTTTTCACGTGTAGAT | 0.51 kcal/mol
119 | GTAGACACGTGATGGG | 0.09 kcal/mol
120 | TCGGGCACGTGTCGAG | 0.02 kcal/mol
121 | GGAATCACGTGTGTTC | 0.23 kcal/mol
122 | GAATACACGTGTTGTA | 0.12 kcal/mol
123 | TGATACACGTGACGGG | 0.14 kcal/mol
124 | GTGGACACGTGGGGTG | -0.11 kcal/mol
125 | TGGGGCACGTGTCTGT | -0.11 kcal/mol

Row | Sequence | relative binding free energy
126 | CTGGTCACGTGGGAGG | 0.07 kcal/mol
127 | GGTGTCACGTGATGGC | 0.21 kcal/mol
128 | TATGACACGTGTGAGT | 0.19 kcal/mol
129 | TTTCGCACGTGGTACG | -0.16 kcal/mol
130 | TGCGTCACGTGCTTAG | -0.04 kcal/mol
131 | TAGCGCACGTGTTGAT | -0.08 kcal/mol
132 | ATTGGCACGTGATAAT | 0.04 kcal/mol
133 | GGGCACACGTGAGTGA | 0.34 kcal/mol
134 | TATTGCACGTGGAACG | 0.05 kcal/mol
135 | TTGGTCACGTGGCTCG | 0 kcal/mol
136 | ATGGGCACGTGTCGTA | -0.12 kcal/mol
137 | ATGTCCACGTGAGTTT | 0.14 kcal/mol
138 | TACGGCACGTGCGGTT | -0.05 kcal/mol
139 | AAGAGCACGTGTGTTG | -0.07 kcal/mol
140 | GGGGCCACGTGTATGT | -0.06 kcal/mol
141 | TTGCACACGTGGTTAG | -0.14 kcal/mol
142 | TCAGGCACGTGTGGCA | -0.08 kcal/mol
143 | AGGTACACGTGTAGGC | 0.13 kcal/mol
144 | AATGTCACGTGAATTA | 0.3 kcal/mol
145 | AATCTCACGTGTTTGA | 0.24 kcal/mol
146 | TGGGACACGTGTGGCG | -0.01 kcal/mol
